Results reported in patent US5871946A, “Method for determining activity of enzymes in metabolically active whole cells” (priority 1995, dated 1999).

How the values were obtained:
[1] = system: LYMPHOCYTES; assay: Disease to normal ratio of enzyme activity, lymphocytes (Table 5); assay type: cell-based, human
Excerpt: (§1) A normal in house adult donor pool was drawn, recording sex and determining that no known disease state was present at the time of sample draw. Criteria for rejecting samples included patients under medication, patients with infection or inflammation of any type, colds and flu as well as any known medical illness such as cancer, heart ailment and high blood pressure. A donor list of 75 patients has been developed and a mean and 2 sd range established. A subgroup of "super normals" was developed from this list by examining the 75 patients to determine which group falls closest to the mean for all enzymes in all cell types tested. These patients were used as the "wellness index" or best group of "normalcy" patients. If a study required the use of children or newborns then this same format was used to develop a data base for these age groups.

[2] = system: MONOCYTES; assay: Disease to normal ratio of enzyme activity, monocytes (Table 5); assay type: cell-based, human
Excerpt: as §1

SMILES	Inflam Dis Lymphs [1]	Inflam. Dis. Monos [2]
C[C@H](N)C(=O)Nc1ccc2c(c1)Oc1cc(NC(=O)[C@H](C)N)ccc1C21OC(=O)c2ccccc21 [ALA, (Ala)2 Rho 110]	1.07	0.94
O=C1OC2(c3ccc(OP(=O)(O)O)cc3Oc3cc(OP(=O)(O)O)ccc32)c2ccccc21 [DPO4, (PO4)2 fluorescein]	0.45	0.28
CC(=O)Oc1ccc2c(c1)Oc1cc(OC(C)=O)ccc1C21OC(=O)c2ccccc21 [FDA, fluorescein diacetate, reference compound]	0.80	0.47
CC(=O)Oc1ccc2c(c1)Oc1cc(OC(C)=O)ccc1C21OC(=O)c2ccccc21 [FDA-NAF, reference compound]	0.16	0.13
C[C@H](NC(=O)CNC(=O)[C@H](Cc1ccccc1)NC(=O)CN)C(=O)Nc1ccc2c(c1)Oc1cc(NC(=O)[C@H](C)NC(=O)CNC(=O)[C@H](Cc3ccccc3)NC(=O)CN)ccc1C21OC(=O)c2ccccc21 [GFGA, (Gly-Phe-Gly-Ala)2 Rho 110] (I: H-GFGA / II: H-GFGA; linker I:C-II:C via Rhodamine110)	1.40	–
NCC(=O)Nc1ccc2c(c1)Oc1cc(NC(=O)CN)ccc1C21OC(=O)c2ccccc21 [GLY, (Gly)2 Rho 110]	0.16	0.35
C[C@H](NC(=O)[C@@H](N)CCCCN)C(=O)Nc1ccc2c(c1)Oc1cc(NC(=O)[C@H](C)NC(=O)[C@@H](N)CCCCN)ccc1C21OC(=O)c2ccccc21 [KA, (Lys-Ala)2 Rho 110]	0.07	0.25
CC(C)C[C@H](N)C(=O)Nc1ccc2c(c1)Oc1cc(NC(=O)[C@@H](N)CC(C)C)ccc1C21OC(=O)c2ccccc21 [LEU, (Leu)2 Rho 110]	0.72	0.65
N=C(N)NCCC[C@H](N)C(=O)NCC(=O)N[C@@H](CCC(=O)O)C(=O)N[C@@H](CO)C(=O)Nc1ccc2c(c1)Oc1cc(NC(=O)[C@H](CO)NC(=O)[C@H](CCC(=O)O)NC(=O)CNC(=O)[C@@H](N)CCCNC(=N)N)ccc1C21OC(=O)c2ccccc21 (stereo partly drawn) [RGES, (Arg-Gly-Glu-Ser)2 Rho 110] (I: H-RGES / II: H-RGES; linker I:C-II:C via Rhodamine110)	–	0.61
CC(C)[C@H](N)C(=O)N[C@@H](CCCCN)C(=O)Nc1ccc2c(c1)Oc1cc(NC(=O)[C@H](CCCCN)NC(=O)[C@@H](N)C(C)C)ccc1C21OC(=O)c2ccccc21 [VK-M, (Val-Lys)2 Rho 110 (modified)]	–	1.87
O=C(NCC(=O)N1CCC[C@H]1C(=O)Nc1ccc2c(c1)Oc1cc(NC(=O)[C@@H]3CCCN3C(=O)CNC(=O)OCc3ccccc3)ccc1C21OC(=O)c2ccccc21)OCc1ccccc1 [Z-GP, (carbobenzyloxycarbonyl-Gly-Pro)2 Rho 110]	–	0.98
O=C(NCC(=O)N1CCC[C@H]1C(=O)Nc1ccc2c(c1)Oc1cc(NC(=O)[C@@H]3CCCN3C(=O)CNC(=O)OCc3ccccc3)ccc1C21OC(=O)c2ccccc21)OCc1ccccc1 [Z-GP-M, (carbobenzyloxycarbonyl-Gly-Pro)2 Rho 110 (modified)]	–	0.73

Numbered stars: 1 amine (or outer) side, 2 acyl side, 3 side chain; on linkers, the order of the positions; unused ones are H or OH. Bridge positions count the residues as written; N and C are the ends. Peptide text beside a SMILES is read from it. I, II: the chains in the order shown. Rhodamine110 = O=C1OC2(c3ccc(N[*:1])cc3Oc3cc(N[*:2])ccc32)c2ccccc21
